Experimental data reported in PubChem BioAssay AID743279 (National Center for Advancing Translational Sciences (NCATS), 2014).
In all, about 360,000 compounds went through this assay and about 17,000 (4.7%) were called active. Inconclusive results, whose numbers are uncertain, are shown with a selection of clear calls. Rule as the data show it: active = activity change below about -50%; inconclusive = mostly about -30% to -49%; inactive = weaker than that.
% is scaled to controls: 0 for no effect and ±100 for the full control effect.

Assay: qHTS for Inhibitors of Inflammasome Signaling: IL-1-beta AlphaLISA Primary Screen
Conditions: THP-1 LPS/ATP IL-1B secretion, 16 h; at 57.5 µM, active compounds read low
In short: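 Secreted IL-1B measured by AlphaLISA bead assay after 16 h compound exposure of THP-1 cells; compounds (final up to 57.5 uM) added 1 h before LPS (250 ng/mL) and ATP (1.25 mM) stimulation; lower signal means less secretion.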
In the case of `CN1CCc2nc3ccc(Cl)cc3c(-c3ccccc3Cl)c2C1`, the activity change is reported as active: -56.4%. In the case of `COc1ccc(C2/C=C\CC(NC(=O)OCC3c4ccccc4-c4ccccc43)CC(=O)N2Cc2ccccc2F)cc1` (stereo unspecified), the activity change is reported as inconclusive: -33.3%. With `CN(CC(=O)Nc1cc(S(=O)(=O)N2CCCC2)ccc1Cl)Cc1ccc2c(c1)OCO2` the activity change was inconclusive: -35.5%. For `COc1cc(C#N)c(NS(=O)(=O)c2ccc3[nH]c(=O)sc3c2)cc1OC`, the activity change was inactive: 26.8%. In the case of `Cc1ccc(N=C(NO)c2nonc2N)c(C)c1`, the activity change is reported as inconclusive: -33.2%. In the case of `CN(C(=O)Cc1c[nH]c2ccccc12)C(C(=O)Nc1ccc2c(c1)OCO2)c1ccccc1` (stereo unspecified), the activity change is reported as active: -66.7%. With `CCOC(=O)[C@H]1[C@H]2COc3ccc(Br)cc3[C@@H]2N2C(=O)c3cc(Br)ccc3NC(=O)[C@@]12C` the activity change was inactive: -13.8%. In the case of `C=CCN(c1ccccc1)S(=O)(=O)c1cccc(C(=O)NC2CCN(Cc3ccccc3)CC2)c1`, the activity change is reported as active: -53.6%. For `O=C1CC2(CCN(C(=O)c3ccccc3Br)CC2)Oc2ccccc21`, the activity change was inconclusive: -35%. For `O=C(c1ccc(F)cc1)N1CCN(Cc2ccccc2Br)CC1`, the activity change was inconclusive: -32.6%. In the case of `CN(C)CCCn1c(=O)n(C2CCCCC2)c(=O)c2c3c(sc21)CCCCC3`, the activity change is reported as inconclusive: -39.8%. For `CC(C)(C)[C@H]1COC(=O)[C@H](Cc2ccc(F)cc2)CC/C=C/C[C@@H](CC(=O)N[C@H](CO)Cc2ccccc2)C(=O)N1`, the activity change was inactive: 12.3%. In the case of `O=C(CN1C(=O)/C(=C/c2ccccc2F)Sc2ccccc21)NCc1cccnc1`, the activity change is reported as inconclusive: -44.5%. In the case of `Cn1c(NC(=O)COc2ccccc2)cc(=O)n(C)c1=O`, the activity change is reported as inactive: 18.5%. With `O=C(NCCc1cccnc1)c1cc(COc2ccc(F)cc2Cl)on1` the activity change was inactive: -21.4%. In the case of `O=C(COc1ccc(Cl)cc1Br)Nc1ccncc1`, the activity change is reported as inconclusive: -37.8%. For `CCC(=O)N1CCC2(CC1)Oc1ccc(F)cc1C(=O)C21CC(c2ccc(Cl)cc2)=NO1` (stereo unspecified), the activity change was inconclusive: -38.8%. With `COc1cc(CN2CCCCCC2)c([N+](=O)[O-])cc1OC` the activity change was inactive: -4.21%. For `CCC1Nc2ncnc(N3CCc4ccccc4C3)c2N(Cc2ccc(Br)cc2)C1=O` (stereo unspecified), the activity change was active: -94.9%. For `O=C(CSc1ncn[nH]1)N1N=C2/C(=C\c3ccco3)CCCC2C1c1ccco1` (stereo unspecified), the activity change was inactive: -19.4%. With `CNC(=O)c1cccc(NC(=O)c2cc(-c3ccccc3)nc3c2cnn3C(C)C)c1` the activity change was inconclusive: -48.8%. In the case of `O=C(NN1C(=O)C2C3C=CC([C@H]4CC34)[C@@H]2C1=O)c1ccc(Br)cc1` (stereo partly specified), the activity change is reported as inactive: 29.9%. For `O=C(Nc1ccc(N2CCN(C(=O)c3cccs3)CC2)cc1)c1cccnc1`, the activity change was active: -52%. In the case of `CCOc1ccc(CN(C)C(=O)CNC(=O)c2ccc3ccccc3c2)cc1OC`, the activity change is reported as inconclusive: -48%. With `COc1ccc(-c2nnc3n(CCc4ccccc4)c(=O)c4ccccc4n23)cc1OC` the activity change was inconclusive: -40.3%. In the case of `O=C(Nc1cccc(NC(=O)c2nccc3ccccc23)c1)c1ccco1`, the activity change is reported as inactive: 3.49%. With `O=CN1Cc2ccccc2-c2ccccc2C1` the activity change was inactive: 0.537%. For `OC1CN=C2CCCc3c2n(c2ccc(Cl)cc32)C1` (stereo unspecified), the activity change was inconclusive: -43.9%. With `CCCCOc1ccc(C(=O)Nc2ccc(N3CCN(C)CC3)cc2)cc1` the activity change was inconclusive: -42.3%. In the case of `N#Cc1ccccc1OCC(=O)Nc1ccc(S(=O)(=O)N2CCOCC2)cc1`, the activity change is reported as inactive: -17.8%. With `COc1ccc(NC(=O)c2ccc(CNc3c(N4CCCC4)c(=O)c3=O)cc2)cc1Cl` the activity change was inconclusive: -37.2%. In the case of `Cc1ccc(NC(=O)C(c2ccc(Cl)cc2)N2CCOCC2)cc1` (stereo unspecified), the activity change is reported as inactive: 7.29%. For `CC(=O)Oc1ccc(N2C(=O)c3cccc4c([N+](=O)[O-])ccc(c34)C2=O)cc1`, the activity change was inconclusive: -38.9%. For `CC1=C(C(=O)Nc2ccccc2Cl)C(c2ccc(N(C)C)cc2)NC(=O)N1` (stereo unspecified), the activity change was inconclusive: -33.1%. In the case of `Cc1ccccc1S(=O)(=O)c1cc2ccccc2nc1N`, the activity change is reported as inactive: 24.3%. For `O=C(c1ccc(Br)c([N+](=O)[O-])c1)N1CCN(Cc2ccccc2)CC1`, the activity change was inconclusive: -32.4%. With `CC(C)(C)NC(=O)Cn1nnc(-c2ccc(OCc3c(F)cccc3Cl)cc2)n1` the activity change was inconclusive: -34%. With `COc1ccc(-c2nn(-c3ccccc3)cc2C(=O)Nc2cccc(S(=O)(=O)NC3=NCCC3)c2)cc1` the activity change was inconclusive: -32.2%. For `O=C1/C(=C/c2cccc3ccccc23)CCCc2ccccc21`, the activity change was inconclusive: -34.7%. For `CCn1c(N2CCN(S(=O)(=O)c3ccc(Cl)cc3)CC2)nc2ccccc21`, the activity change was active: -86.6%. With `CCCCN(CCCC)CC(O)COc1ccc(Br)cc1` (stereo unspecified) the activity change was active: -67.3%.
